# Measured values from the supplement of paper PMC3334620.
# Over roughly 33,000 sequences, “E-score (-0.5 to 0.5)” has its median near -0.012; the highest 2% begin near 0.27. This is one part of the list.
# Target: T1, Vhr1 (UniProt P40522)
# T1 sequence: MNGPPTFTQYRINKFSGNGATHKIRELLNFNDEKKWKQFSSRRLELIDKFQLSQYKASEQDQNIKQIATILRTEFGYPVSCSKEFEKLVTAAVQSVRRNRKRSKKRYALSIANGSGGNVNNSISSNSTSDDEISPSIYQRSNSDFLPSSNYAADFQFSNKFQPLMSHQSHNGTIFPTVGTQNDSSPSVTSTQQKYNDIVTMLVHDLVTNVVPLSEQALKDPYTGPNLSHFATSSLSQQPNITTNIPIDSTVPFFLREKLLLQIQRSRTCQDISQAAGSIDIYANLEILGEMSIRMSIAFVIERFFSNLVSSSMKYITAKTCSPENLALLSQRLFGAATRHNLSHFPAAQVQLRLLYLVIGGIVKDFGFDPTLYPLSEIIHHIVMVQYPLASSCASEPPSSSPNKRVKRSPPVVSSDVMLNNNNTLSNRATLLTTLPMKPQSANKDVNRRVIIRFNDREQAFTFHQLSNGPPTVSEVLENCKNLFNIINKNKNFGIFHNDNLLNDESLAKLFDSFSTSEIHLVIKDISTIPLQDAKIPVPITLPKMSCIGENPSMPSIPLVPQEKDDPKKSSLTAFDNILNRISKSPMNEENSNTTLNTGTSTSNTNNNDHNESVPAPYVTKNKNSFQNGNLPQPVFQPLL
# Experiment: PBM E-score (8-mer binding enrichment) (E-score (-0.5 to 0.5)); higher = stronger / more preferred TF binding; most listed sequences are background and not binding sites
# Details: protein concentration: 200 nM; construct: GST-full length
# Method in brief: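 Universal all-10-mer Agilent arrays, fresh or stripped once, were converted to double-stranded form by primer extension. GST-tagged yeast transcription factors from PURExpress in vitro transcription/translation, full-length or DNA-binding domain only, were applied at about 100-200 nM and detected with fluorescent anti-GST. After masliner normalisation, the Universal PBM Analysis Suite scored each ungapped eight-base word together with its reverse complement by E-score.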
row,Sequence,PBM E-score
1,ACTGTGGA,0.124
2,AGGGAGGA,-0.25
3,ATTCCCTG,0.0764
4,CGCCTGAC,0.103
5,GTCGAGCA,-0.0945
6,AGACGACT,0.0884
7,GGATATCC,0.0435
8,GAATATCC,-0.189
9,ATTGCTAA,-0.0369
10,CACATTAG,-0.0421
11,CGGAACTA,0.0982
12,CGGTGGAA,-0.0952
13,GAAGATAA,-0.0175
14,CAAGTCAG,0.208
15,AACTTAAG,-0.163
16,AGGGAAAG,-0.212
17,ACGCAACT,-0.0458
18,CTTGGATC,0.0792
19,ATCTGCGA,0.121
20,CCCGATCG,0.0213
21,ATGGAGTC,0.433
22,GAACTGCC,-0.0452
23,GACCGATA,-0.0142
24,CTGCGAAA,-0.176
25,CGATCACC,0.147

row,Sequence,PBM E-score
1,ACGACTCT,0.261
2,AGCTGACT,0.413
3,CTGTAGTA,0.262
4,AGCACTAG,-0.105
5,GTTCATCA,0.15
6,CTGATATA,-0.062
7,GCAGATAC,-0.0735
8,CCGGCGTA,0.174
9,GATTTTTA,0.0137
10,CCTTCGAG,-0.288
11,AACGTGCA,-0.228
12,GATAGCCC,-0.22
13,CATCTGGA,0.0944
14,CTGTATCA,-0.0153
15,GAAGAATC,-0.1
16,CACTCTGA,0.00421
17,CAGTTCGA,0.00768
18,ATTGTTGG,0.169
19,AGTGGGAA,0.056
20,CGATACCA,0.138
21,ACATTCTA,-0.0337
22,AACCGTGC,0.0306
23,CCAATAGA,-0.0524
24,CGGTAGCC,0.223
25,CTGACTAA,0.359

row,Sequence,PBM E-score
1,GGGTATAA,-0.0128
2,GACTACCA,0.306
3,CCGGGTAA,0.0829
4,GAGGCTGC,0.00037
5,CGAGCCCC,-0.0595
6,ACCGCCGA,0.0789
7,CTTACAAA,-0.00387
8,CATCTTCG,-0.0538
9,GTCACTGA,0.0573
10,ATTCTGAG,-0.096
11,TATTGTCA,0.0335
12,ATTTCACA,0.0774
13,ACATGCCT,0.14
14,GGCAACAA,0.144
15,AGAGATTC,0.0168
16,AATTCCGA,-0.181
17,AGATCTGG,-0.165
18,GACAATGC,-0.162
19,GAGATCCA,0.002
20,CGCGATCC,0.0866
21,ACACGAAA,0.0417
22,GTCAATTA,-0.166
23,ACGGTGCG,0.136
24,TAGTTATA,0.00574
25,AGTAGCAA,-0.108

row,Sequence,PBM E-score
1,CAAAACCC,0.0268
2,CGCGCCAC,0.109
3,AGACCCAA,-0.0169
4,CCAGCGTC,0.0588
5,CACTCATC,0.137
6,AGCAGCGC,-0.0886
7,GGTGAGTA,0.282
8,AAACAAGA,0.121
9,AGGACTTC,-0.126
10,GTGGAAAA,-0.21
11,GTGCGAAA,-0.0809
12,AGACCACG,-0.155
13,CTCTACCC,0.116
14,ACGGGGCC,-0.0737
15,CTTTAAGC,-0.0514
16,CTCGATCC,0.0979
17,CGACCAAC,-0.0668
18,AATACTAG,0.151
19,AAGATCTC,-0.0464
20,GGGAACAC,-0.0418
21,GATGGAGA,0.0458
22,CCTCCCTA,-0.0884
23,CTCAGCTC,-0.0284
24,ATGACAGC,-0.0467
25,GAGGAAGC,-0.151

row,Sequence,PBM E-score
1,GGTGGTAC,-0.101
2,TATTTCGA,0.132
3,AACCAACG,-0.0349
4,ACCCATGC,0.273
5,TCATCAGA,0.0944
6,AGACACCG,0.21
7,AACGGAGC,-0.14
8,GGCTGCCA,0.181
9,CCCCGTAC,-0.115
10,ACTCCCGG,0.0384
11,CAGATGTC,0.105
12,CACACGTC,-0.0418
13,AAGTCACT,0.209
14,CGCGCACA,0.102
15,AAAATGTC,-0.229
16,AGCTCTGG,-0.219
17,AAAATTGC,-0.133
18,CATCGAGA,-0.00344
19,CAATGGTG,-0.0981
20,ATGGTTCC,0.318
21,GTGGGAGA,0.0114
22,CGACCGAG,-0.0809
23,CAACTTGC,-0.129
24,CCACCTAA,0.0225
25,AGACCGCT,-0.159

row,Sequence,PBM E-score
1,CTCAGAAG,-0.0987
2,ACGGGTGG,0.23
3,CATAACAA,0.142
4,ATGCTAAC,-0.153
5,ACTCCGAC,0.332
6,AACCGCCA,0.142
7,CCAGTCAC,0.296
8,CTGCGGCA,-0.249
9,CGTTACCC,0.0276
10,CAACCCGG,-0.116
11,TGATCAAA,-0.0544
12,ATAGTAAA,0.228
13,GAAATAGC,-0.197
14,CCGTCGGC,-0.143
15,GACGTACA,-0.0564
16,GTTTCAGA,-0.0471
17,ACCCAAGA,0.0309
18,AGCGAGCC,0.0642
19,AGAGAGTC,0.215
20,GACGCATA,0.0856
21,ACTGACGG,-0.148
22,ACTCCCTC,0.0377
23,ACCATTGG,0.0996
24,ATCACACA,0.282
25,CATCGACA,0.0338

row,Sequence,PBM E-score
1,AAGTGTGG,-0.0606
2,AGTCCTCG,0.0538
3,AGGCCTGC,-0.266
4,GGAGCGGA,0.0344
5,CGGGAACG,-0.106
6,ACCCCGAG,-0.0233
7,AACGCCTA,-0.16
8,ACACACTC,0.293
9,CATGAATA,0.0636
10,CAGGCAAA,-0.071
11,GCGCTAAC,-0.0165
12,CCTGGACC,-0.0193
13,ACCCCACG,-0.0797
14,ATCGGAAC,0.144
15,GTGGGCAA,-0.157
16,AAGTCGCC,-0.0133
17,CTAACTAA,-0.0113
18,AGCCTGAA,0.0329
19,ATGCTCGC,0.0137
20,AACTTGGC,-0.119
21,ACGTCTAC,-0.0294
22,CCAGAGCG,-0.145
